# Values joined by “and” are separate entries in the source; they are usually repeats but may differ in a detail not shown here. Equal values may be shown once. Out of some 420,000 compounds screened, about 64,000 (15%) were called active. This list was built around the results that the source calls inconclusive (neither active nor inactive); the mix of calls is not that of the screen. Calls follow the shape of the dose curve; as a rule, active = well fitted inhibition curve with a large enough effect; inconclusive = small, poorly fitted or top-dose-only effect; inactive = flat fitted curve, though single readings scatter. No potency is given beside an inconclusive call; the fits are too rough.
# Assay: qHTS for Inhibitors of human tyrosyl-DNA phosphodiesterase 1 (TDP1): qHTS in cells in absence of CPT; also: nearly all actives have a fitted effect of over 55% in size
# Conditions: DT40 Tdp1-/- hTDP1 cells, no CPT, ATP luminescence, 48 h; activity change, negative = growth inhibition: at 46.2 µM (top of the series)
# Method in brief: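 No-CPT arm: Tdp1-/-;hTDP1 DT40 cells (400/well) plus compounds, incubated ≥48 hr at 37 °C. Readout CellTiter-Glo luminescence.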
# % is scaled to controls: 0 for no effect and ±100 for the full control effect; potency is read from the fitted curve at half-maximal effect; tags tell the direction and shape of the fitted curve.
Compound,Potency,"activity change, negative = growth inhibition"
CN(CCOc1ccc(Br)cc1)C(=O)CNC(=O)c1ccc2ccccc2c1,"inconclusive [inhibitor, single point]",
COc1ccc(OCC(=O)N2N=C(C(F)F)CC2(O)C(F)F)cc1 (stereo not given),"inconclusive [inhibitor, partial curve, poor fit]",
CCOC(=O)C(NC(=O)NCc1ccc(OC)cc1)(OCC)C(F)(F)F (stereo not given),inactive,
O=C(CNS(=O)(=O)c1ccc(Br)s1)NC1CCCc2ccccc21 (stereo not given),"inconclusive [inhibitor, full curve, poor fit]",
COc1cc(CNCCc2ccc(S(N)(=O)=O)cc2)ccc1OCC(=O)N1CCCCC1,inactive,
O=C1NC(Cc2ccccc2)c2nc3ccc(Cl)cc3c(=O)n2-c2cc3ccccc3cc21 (stereo not given),active: 7.31 µM,
CCn1c(SCC(=O)c2c(N)n(C3CC3)c(=O)[nH]c2=O)nc2cc(S(N)(=O)=O)ccc21,inactive,
CCN1CCN(CCOc2cccc(Oc3ccccc3)c2)CC1,"inconclusive [inhibitor, single point]",
COCCNC(=O)C1CCN(Cc2cc3ccccc3n2Cc2ccc(C)cc2)CC1,active: 20.6 µM,
COc1ccc(-c2coc3c(C(=O)NCC4CC4)cccc23)c(C)c1,active: 25.9 µM,
Cc1ccc2cc3cc(C(=O)N4CCCCCC4)oc3nc2c1,"inconclusive [inhibitor, single point]",
Clc1nssc1=Nc1ccccc1,active: 14.6 µM,
CCCCC(CCc1ccccn1)C(=O)c1ccccc1 (stereo not given),"inconclusive [inhibitor, single point]",
CC(C)Oc1ccc(NC(=O)C2CCCNC2=O)cc1 (stereo not given),inactive,
COc1ccccc1NC(=O)C1=C(C)Nc2nc(SCc3ccccc3)nn2C1c1cccc(O)c1 (stereo not given),active: 23.1 µM,
Cc1cc(C)n(-c2cccc(C(=O)NCC3Cc4cccc(-c5cccnc5)c4O3)c2)n1 (stereo not given),active: 14.6 µM,
O=C(COC(=O)c1ccccc1OCc1ccc(F)cc1)NCC1CCCO1 (stereo not given),"inconclusive [inhibitor, single point]",
COc1ccc(/C=N/n2c(C)nc3ccccc3c2=O)cc1OC,,inconclusive: -32.3% [inhibitor]
O=C(NCc1cccnc1)C1CCC(CNS(=O)(=O)c2ccc(Cl)cc2)CC1 (stereo not given),"inconclusive [inhibitor, single point]",
CSc1nc2ccc3nc(NC(=O)c4ccccc4)sc3c2s1,"inconclusive [inhibitor, single point]",
O=C(Nc1nnc(C2=COCCO2)o1)c1cccc([N+](=O)[O-])c1,inactive,
CCN(CC)S(=O)(=O)c1cccc(NC(=O)CSc2nnc(N)s2)c1,"inconclusive [inhibitor, single point]",
CNC(=O)c1sc(=S)n(-c2ccc(OC)cc2)c1N,"inconclusive [inhibitor, partial curve, poor fit]",
CC(=O)c1c(C)[nH]c(C(=O)CSc2nnc(NC3CC3)s2)c1C,active: 14.6 µM,
CC12CCC(C/C1=N/O)C2(C)C (stereo not given),inactive,

Compound,Potency,"activity change, negative = growth inhibition"
O=S(=O)(c1ccc(Cl)cc1)N1CCOCC1,inactive,
O=C(NCCNC(=O)c1ccccc1F)c1ccccn1,inactive,
Cc1cc(Br)cn2c(CC(C)(C)C)c(-c3cccc(Cl)c3)nc12,"inconclusive [inhibitor, single point]",
O=C(COC(=O)c1cccnc1Cl)c1ccc(F)cc1,"inconclusive [inhibitor, full curve, poor fit]",
COc1ccc(OC)c(NC(=O)CNC(=O)c2cccs2)c1,inactive,
Cc1ccc2c(c1)nnn2C1CCN(S(=O)(=O)c2ccc(C(=O)N(C)C)cc2)CC1,"inconclusive [inhibitor, partial curve, poor fit]",
COc1ccc(C2(c3ccc(OC)cc3)NC(=O)N(CC(=O)Nc3cc(C)ccc3OC)C2=O)cc1,"inconclusive [inhibitor, single point]",
CSc1ncc(Cl)c(C(=O)Nc2cccc(Cl)c2)n1,"inconclusive [inhibitor, single point]",
COc1ccc(OC)c(NS(=O)(=O)c2ccc(-n3cccn3)cc2)c1,active: 20.6 µM and active: 10.3 µM,
Cc1nnc(Sc2nc3c(c(=O)[nH]c(=O)n3C)n2Cc2ccccc2)s1,"inconclusive [inhibitor, single point]",
O=C(COc1ccc(F)cc1)Nc1nnc(S(=O)(=O)N2CCCC2)s1,inactive,
COc1ccc(C)cc1S(=O)(=O)N1CCN(C/C=C/c2ccccc2)CC1,active: 14.6 µM,
O=C(NCc1ccccc1)c1cc(C2CCCCN2S(=O)(=O)c2cccs2)on1 (stereo not given),"inconclusive [inhibitor, single point]",
COc1ccccc1CNC(=O)c1ccc2[nH]c(C)c(C)c2c1,inactive,
COc1ccc(-c2sc3cc4c(cc3c2-c2ccc(OCCN3CCOCC3)cc2)OCO4)cc1,"inconclusive [inhibitor, single point]",
COc1cc(OC)cc(-c2cc(N)n(S(=O)(=O)Cc3ccccc3)n2)c1,active: 18.4 µM,
O=C1/C(=N\S(=O)(=O)c2cccs2)C([n+]2ccc(CCCc3ccccc3)cc2)=C([O-])c2ccccc21,inactive,
COCCCNC(=O)Cn1c(=O)n(-c2ccc(C)c(C)c2)c(=O)c2c3c(sc21)CCCCC3,inactive,
COc1ccc(S(=O)(=O)N2CCCCCC2)cc1C(=O)N(C)Cc1ccc(C)cc1,"inconclusive [inhibitor, single point]",
Clc1cccc(Cl)c1CO/N=C/c1cccs1,,inconclusive: -34% [inhibitor]
COc1ccc(OC)c(-c2cc(C3CCN(c4ncccc4[N+](=O)[O-])CC3)[nH]n2)c1,"inconclusive [inhibitor, single point]",
CC(C)c1ccc(C(=O)N2CCCCC2c2cc(C(=O)NCc3cccnc3)no2)cc1 (stereo not given),"inconclusive [inhibitor, single point]",
COC(=O)CCC(=O)N1CCc2cc(S(=O)(=O)N3CCN(c4ccccc4Cl)CC3)ccc21,"inconclusive [inhibitor, partial curve, poor fit]",
CCN1/C(=C/c2ccc3cc(C)ccc3[n+]2CC)Sc2ccc3sccc3c21,active: 0.58 µM,
Cc1ccc2c(C(=O)CN3CCCC3)c(C)[nH]c2c1,inactive,

Compound,Potency,"activity change, negative = growth inhibition"
CCCCNC(=O)C(CC)Sc1nc2ccccc2c(=O)n1Cc1ccco1 (stereo not given),"inconclusive [inhibitor, single point]",
Cc1nc2c(-c3ccccc3)c(C)nn2c(C)c1CCC(=O)NC(C)CCc1ccco1 (stereo not given),active: 9.2 µM,
CCc1ccc(S(=O)(=O)NCc2nc(N3CCCC3)c3cccc(C)c3n2)cc1,"inconclusive [inhibitor, single point]",
Cn1c(=O)c2c(nc(Br)n2Cc2ccc3ccccc3c2)n(C)c1=O,"inconclusive [inhibitor, partial curve]",
COc1ccccc1NC(=O)Nc1nnc(C(C)c2ccccc2)s1 (stereo not given),inactive,
COC(=O)c1ccc(-c2nc(O)c3cnccn23)cc1,inactive,
O=C1C2C3C=CC(CC3)C2C(=O)N1c1cccc(C(F)(F)F)c1 (stereo not given),inactive,
COc1ccc(C(=O)/C=C/C(=O)N(CC(=O)NCCC(C)C)Cc2cccs2)c(O)c1,"inconclusive [inhibitor, full curve]",
COCCNC(=O)c1sc2ncccc2c1-n1c(C)ccc1C,"inconclusive [inhibitor, single point]",
COc1ccc(NC(=O)C23CC4CC(C2)CC(c2ccccc2)(C4)C3)c(OC)c1,"inconclusive [inhibitor, single point]",
CCCc1nc2ccccc2n1C(C)C(=O)NC(C)(C)C (stereo not given),inactive,
CCN(CC)CCNC(=O)CCn1nc(-c2ccc(Cl)cc2)ccc1=O,inactive,
COc1cccc(/C=N/Nc2nc(C)cc(=O)[nH]2)c1OC,inactive,
CN(C)c1ccc(/C=C/c2cc(Cl)nc3ccccc23)cc1,inactive,
COc1ccccc1CNn1c(-c2cccc(C)c2)nc2ccccc2c1=O,"inconclusive [inhibitor, single point]",
COc1ccc(-c2nc(CCl)cs2)cc1,active: 5.8 µM,
O=C(CSc1nc2ccccc2o1)NC1CCCC1,inactive,
Cc1nc(N2CCN(C(c3ccccc3)c3ccccc3)CC2)[nH]c(=O)c1C,"inconclusive [inhibitor, single point]",
CCOc1ccc(-c2nc(S(=O)(=O)c3ccccc3)c(NCc3cccnc3)o2)cc1,"inconclusive [inhibitor, partial curve]",
CCCCCOC(=O)NCCOC(=O)Nc1ccc(C(=O)OCC)cc1,"inconclusive [inhibitor, single point]",
CCC(C)NC(=O)COC(=O)c1oc2ccccc2c1CSc1ccc(Cl)cc1 (stereo not given),"inconclusive [inhibitor, single point]",
CC(=O)c1cccc(NC(=S)NC(=O)c2ccccc2)c1,"inconclusive [inhibitor, partial curve]",
Cc1cccc(N(C)S(=O)(=O)c2nnc(NC(=O)c3cccs3)s2)c1,"inconclusive [inhibitor, partial curve]",
Cc1ccc(-c2nnc(NC(=O)Cc3ccc(F)cc3)o2)c(C)c1,active: 11.6 µM,
CC(C)Oc1ccc(/C=N/NC(=O)c2ccc(N(Cc3ccccc3)S(C)(=O)=O)cc2)cc1,"inconclusive [inhibitor, single point]",
